Over roughly 33,000 sequences, “E-score (dimensionless, -0.5 to 0.5)” has its median near -0.058; the highest 2% begin near 0.35. The list shows a part of the results.
test system: MvaT; experiment: PBM 8-mer E-score (mean of HK and ME arrays) (E-score (dimensionless, -0.5 to 0.5)); higher = stronger relative binding preference; most listed sequences are background and not binding sites
Method in brief: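 Reported values are rank-based E-scores, taken as the mean of two universal arrays and parsed with a custom script. Each 8-mer score falls between -0.5 and 0.5. The arrays, ME and HK, were double-stranded 60-mers with a constant 25-mer primer region and a variable 35-mer region covering all 8-mers. They were probed, by an earlier protocol, with full-length P. aeruginosa MvaT carrying an N-terminal glutathione S-transferase fusion.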

Sequence | PBM 8-mer E-score
TACGGAGA | 0.0386
TGACGAAA | 0.147
GATCGCGA | -0.0811
TCAGATGA | 0.0376
CGTAAGCC | -0.205
GTAGGTGA | -0.0483
CGATGGCC | -0.224
CTCGACTA | -0.0223
AGGGGCCA | -0.294
AGTAATAG | 0.213
GCAGTACC | -0.119
CAGGGCAC | -0.218
AACTCAAA | 0.167
AAGCGACG | -0.11
ATCTGTAG | 0.0781
TACACGGA | -0.0435
GCCACAGC | -0.247
ATATAAAG | 0.382
GGCGCATA | 0.0174
TGCATCAA | -0.0413
ATCATCCA | 0.0438
TGGCCTAA | -0.073
AACCGTCT | -0.123
CAAGACCG | -0.225
ACTGCCTC | -0.244

Sequence | PBM 8-mer E-score
CATGAGAC | -0.0583
CTCTGAAG | -0.191
AAAGCCAC | -0.161
AGGCCCGC | -0.303
GTCAAAAC | 0.0997
GATAGTAA | 0.284
TATGTACA | 0.327
CACATCGC | -0.184
AAAACGTC | 0.0359
GTGAGCTA | -0.209
CCCACTAG | -0.0671
AATCAACT | 0.128
CAAATAAC | 0.341
CGCCATAC | -0.154
CCGAAGTA | 0.12
AGTTTTAT | 0.351
TAGAAGAA | 0.0365
AACCATTC | -0.0413
CAATGCCA | -0.0747
CGTTCTTA | 0.118
ACATCGCC | -0.217
TCCTGCAA | -0.141
CGTACGCA | -0.072
GGGGCGAC | -0.182
TGGCATAA | 0.135

Sequence | PBM 8-mer E-score
CGACATAG | -0.0874
AAAGGACG | -0.247
AAAAATTG | 0.117
TGACTGCA | -0.107
CTGGAGAC | -0.185
AGGCGATA | -0.135
GTGTTACA | 0.244
GACGACAA | -0.0565
AAACGCTA | 0.077
CGTCAGAG | -0.26
GCCGTAGC | -0.303
GCACCACC | -0.184
CCTACAAA | -0.165
CACTGGCG | -0.195
GGGCCTAC | -0.286
ATGTCCCG | -0.0512
CAATACAC | 0.185
ACTGTGCT | -0.00361
ACCCGAGA | -0.109
AGACCCGG | -0.157
CGGTGAGA | -0.14
GCCTAACA | -0.00559
CAATGCAA | 0.047
GTACCTTA | 0.119
TATCAATA | 0.365

Sequence | PBM 8-mer E-score
AACCACAC | 0.0572
ATTGGAAA | 0.0872
AGTAAAAT | 0.308
CGGAGACC | -0.231
CTGACAGA | -0.11
CTATTAAG | 0.17
AAGCATCC | -0.0969
CGGGCTCA | -0.287
AGCCGCCA | -0.149
TCACGGAA | -0.0865
GCCACTAA | 0.15
ACTCGGCA | -0.149
GCTCGTAA | 0.00131
AAGTGTCA | 0.0929
GCACACAA | 0.0892
ACAAAAGC | 0.146
GTGCTCCA | -0.145
CAAATGTG | 0.0388
AGGGAGAT | -0.257
AAGTGAAC | -0.0729
AACGCTGC | 0.0312
ATGATACC | -0.0482
ACCTCTAT | -0.102
GTTTAATA | 0.407
ACTGACTA | 0.0879

Sequence | PBM 8-mer E-score
AAGCCGAA | -0.0153
AAAACCTA | 0.136
CCGTACCC | -0.209
CGCCGCCA | -0.194
AAGTAAAA | 0.288
TCCGGACA | -0.116
TACCTATA | 0.246
AATCCAAG | -0.0856
TAAAGAGA | 0.0828
GTCACTCA | -0.105
CAGGCGGA | -0.0811
GCAGCTCA | -0.206
CAGCGATC | -0.257
TGATAACA | 0.16
ACTGCGTG | -0.297
GCAATCTA | 0.0472
AACACCGC | 0.0298
AAAATCAA | 0.18
GGAACGCC | -0.268
ACGGCCTG | -0.228
CCACCTGA | -0.246
ATTTGCAA | 0.264
ATCACTAC | 0.115
TGTCTTAA | 0.249
AGTTCGGA | -0.0465

Sequence | PBM 8-mer E-score
ATTGGGTG | 0.0213
ATTTTGCC | -0.0225
ACAGAGAT | 0.094
CACGCACG | -0.267
GTCCGGAA | -0.102
ACTAGGCA | -0.0711
CATCGTGG | -0.114
ACCGTGGG | -0.242
TGCAGTAA | 0.18
AGGAGGGA | -0.281
GTTTCAAA | 0.102
AGGTCGCA | -0.201
ACGGCAGC | -0.259
CGTAGTGA | -0.121
ACATACTC | 0.0437
AATGTAGC | 0.0524
GACACCAC | -0.069
AGATAAAT | 0.241
AGCAACAA | 0.133
ACGGTGAT | 0.0259
CAACGCGC | -0.174
AATATCTC | 0.253
ATATTGCG | 0.326
ACTCATTA | 0.241
ACAGAGCA | -0.0954

Sequence | PBM 8-mer E-score
GTCCTCGA | -0.0957
GCAACCAC | -0.0613
ACCCATTG | -0.0349
ACGTTGCC | -0.023
CTGGTCTC | -0.117
GAACTGAC | -0.103
CCACTAAA | 0.0873
ACAACGCA | 0.0745
AGTTGGAG | -0.0398
CCTAGAAC | -0.0719
CCTATCTA | -0.0202
AAAACCAG | -0.124
ATGGAATA | 0.251
CGCCTCAG | -0.17
ATTTGATC | 0.234
AATACCCC | -0.0253
GATTGGAC | -0.197
ATCCGTCG | -0.0835
TAATCCCA | 0.11
ATACCTAA | 0.202
ATACGCCG | 0.0466
TATAAATA | 0.426
GGGTTTAC | -0.127
CTGAGACC | -0.29
GATCTCAA | -0.245

Sequence | PBM 8-mer E-score
ACTGGCAC | -0.172
AGTGCCAA | -0.0358
GGATGGCC | -0.424
AGCGAGTA | 0.0914
GCTCATGA | -0.248
GAGGGGTA | -0.103
AGAGCGAA | -0.205
CATTAGAC | -0.0167
AAGAAATC | 0.0897
GAGAATAA | 0.24
CCCCGTGA | -0.306
CGCAGGTC | -0.181
GGATAAAC | 0.2
AAACTAGC | 0.161
AAAGCACA | 0.043
GGTTACAA | 0.194
AACGGGCG | 0.0213
AATACATA | 0.324
AACCTGCA | -0.0326
AAGGGACC | -0.22
AACGAAAT | 0.235
AGGCAACT | 0.0507
TATCCTCA | 0.137
AGAATGGC | 0.0244
ACAACACA | 0.176

Sequence | PBM 8-mer E-score
CAACCGAA | 0.0498
GCGGGTAC | -0.223
ACGGTAAG | -0.0748
ACAGCCAT | 0.00243
AAGAAAGC | 0.0463
AACTCCGT | 0.0106
AGTTCGAT | 0.171
AATGGGGG | -0.135
CTGGCTCC | -0.161
AGAGCCTC | -0.0999
ACGGGAAG | -0.146
GTTCCTTA | 0.0235
CAGAGTAA | -0.081
CAGAGATA | 0.0439
AATGCGTC | 0.0828
CGGCTACC | -0.269
AGAGGCAG | -0.197
AATAGTGA | 0.0562
AGCACGTG | 0.0247
